# Laboratory results published in PubChem BioAssay AID1346428 (National Center for Advancing Translational Sciences (NCATS), 2018).
# Values joined by “and” are separate entries in the source; they are usually repeats but may differ in a detail not shown here. Equal values may be shown once. Among all 48,000 compounds or so, about 1,200 (2.5%) were called active. Inconclusive results (about 2%) are left out.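 How the source made its calls: active means activation of at least 60% and not above a set upper limit (about 1 call in 100 departs from these limits); inconclusive means activation of 40% to 60%, or above that upper limit; inactive means activation under 40%.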 This is one part of the list.
# Target: Probable G-protein coupled receptor 32 (Homo sapiens) (UniProt O75388)
# Sequence of UniProt O75388 (O75388 whole entry, looked up): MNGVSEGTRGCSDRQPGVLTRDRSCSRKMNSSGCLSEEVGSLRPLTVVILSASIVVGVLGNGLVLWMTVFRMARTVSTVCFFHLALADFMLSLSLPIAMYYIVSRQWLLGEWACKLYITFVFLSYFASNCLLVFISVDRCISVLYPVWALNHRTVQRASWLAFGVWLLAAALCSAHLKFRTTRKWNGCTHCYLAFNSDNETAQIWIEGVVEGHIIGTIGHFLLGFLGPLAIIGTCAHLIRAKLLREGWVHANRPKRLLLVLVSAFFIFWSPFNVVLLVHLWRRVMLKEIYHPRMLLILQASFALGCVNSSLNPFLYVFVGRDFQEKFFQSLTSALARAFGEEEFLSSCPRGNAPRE
# Experiment: qHTS for Agonists of Human Resolvin D1 Receptor DRV1; further: 0% is about no effect
# Conditions: CHO-K1 GPR32 beta-arrestin PathHunter luminescence, 90 min; at 76.9 µM; active compounds read high; zero percent set by DMSO-only wells
# Method in brief: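 Cells are plated overnight, treated with compounds in DMSO for 90 minutes at 37 °C, and developed with PathHunter detection reagent for 1 hour before luminescence is read; signal reflects beta-arrestin binding to GPR32 in engineered CHO-K1 cells.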
row,SMILES,activation
1,Cc1ccc(CN(C(=O)c2ccc(C(C)(C)C)cc2)c2ccccn2)o1,inactive: 1.24%
2,Cc1c(N)cccc1C(F)(F)F,inactive: 13%
3,CCOc1ccccc1CNC(=O)c1sc2ncccc2c1-n1cccc1,inactive: -2.68%
4,CC(C)CC(=O)Nc1ccc2nc(SCC(=O)N3CCc4ccccc43)sc2c1,inactive: 20.3%
5,CCOC(=O)C1CCCN(S(=O)(=O)c2cc(-c3cc(C)no3)ccc2OC)C1 (centres undefined),inactive: 30%
6,CCOc1cc(C2c3c(-c4cc(C)ccc4O)n[nH]c3C(=O)N2CCCOC(C)C)ccc1O (centres undefined),inactive: -20.6%
7,O=C(COC(=O)c1cc(-c2cccs2)nc2ccccc12)c1ccc(F)cc1,inactive: -9.47%
8,O=C(CSc1nnc(-c2ccc3c(c2)OCO3)o1)Oc1ccccc1,inactive: -2.79%
9,COc1cccc(Cn2c(SCC(=O)N3CCN(c4ccc(F)cc4)CC3)nc3ccccc32)c1,inactive: -12.2%
10,CCn1ccc2cc(S(=O)(=O)N3CCCN(C(=O)Nc4ccccc4F)CC3)ccc21,inactive: 11.2%
11,CCC(C)n1c(=O)c2sccc2n2c(CCCC(=O)N3CCN(c4ccccc4)CC3)nnc12 (centres undefined),inactive: -15.2%
12,CCOc1ccc(-n2c(SCC(=O)Nc3cc(C)ccc3C)nc3c([nH]c4ccccc43)c2=O)cc1,inactive: -3.53%
13,O=C(Cn1c(=O)n(Cc2nc(-c3ccccc3)no2)c(=O)c2cc3c(cc21)OCO3)Nc1ccccc1,inactive: -13.8%
14,COc1ccc(CNC(=O)c2sc3nc4n(c(=O)c3c2C)CCCC4)cc1,inactive: -26.9%
15,O=C(Nc1cc(-c2ccccc2)sc1C(=O)O)c1cccc(F)c1,active: 110%
16,Cc1ccc(Cn2cc(S(=O)(=O)c3cccc(C)c3)c(=O)c3cc(F)c(N4CCOCC4)cc32)cc1,inactive: -10.3%
17,COc1cccc(Cc2nc3ccccc3nc2SCC(=O)Nc2cccc(C)c2)c1,inactive: -21.8%
18,COc1ccc2cc([C@H](C)C(=O)O)ccc2c1,inactive: 39.8% and inactive: -4.58%
19,O=C(Cc1ccccc1)Nc1sc2c(c1C(=O)Nc1ccccc1Cl)CCCCC2,inactive: -10.4%
20,COc1ccc2c(c1)CCc1c(C(=O)Nc3cc(OC)c(Cl)cc3OC)noc1-2,inactive: 14%
21,COC(=O)c1cc(Nc2nc3ccccc3nc2NS(=O)(=O)c2ccc(C)cc2)ccc1Cl,active: 98.8%
22,CC(C)c1ccc(NC(=O)CSC2=Nc3ccccc3C3=NC(CCC(=O)NC4CCCCC4)C(=O)N23)cc1 (centres undefined),inactive: -17.1%
23,O=C(COc1ccccc1F)Nc1ccc2nc(SCC(=O)N3CCc4ccccc43)sc2c1,inactive: -9.99%
24,COc1ccc(NC(=O)CCc2c(C)nc3c(c2C)c(=O)n(C)c(=O)n3C)c(OC)c1,inactive: -6.15%
25,CCc1ccccc1NC(=O)Cn1nc2c3cc(F)ccc3n(Cc3cccc(C)c3)cc-2c1=O,inactive: -16.6%
26,CCOC(=O)c1c(NC(=O)c2cc(-c3ccccc3OC)on2)sc(C)c1C,inactive: -6.42%
27,CC1=C(C(=O)Nc2cccnc2)C(c2ccc(F)cc2)n2nc(-c3cccc(C)c3)nc2N1 (centres undefined),inactive: -8.97%

row,SMILES,activation
1,Cc1cc(NC(=O)C2CCN(S(=O)(=O)c3c(C)noc3C)CC2)ccc1Br,inactive: 21.1%
2,Cc1cc(C)c2nc(N(Cc3cccnc3)C(=O)CCS(=O)(=O)c3ccccc3)sc2c1,inactive: -21.3%
3,CCOc1ccc(-c2cn3c(n2)sc2cc(C(=O)NCCCN4CCCCCC4)ccc23)cc1,inactive: 4.03%
4,CCc1ccc2oc(C(=O)NCC(c3ccc(OC)cc3)N3CCCCC3)c(C)c2c1 (centres undefined),inactive: -5.53%
5,COc1ccc(-c2nc3nc(C)cc(C)n3c2Nc2c(C)cccc2C)cc1,inactive: -3.71%
6,COc1ccccc1CNC(=O)C1(c2cccs2)CCOCC1,inactive: 17%
7,N#Cc1c[nH]n2c(NC3CCCCC3)c(-c3ccc(F)cc3)nc12,inactive: -15.3%
8,CCc1ccc(OCC(=O)Nc2ccc3c(c2)c2ccccc2n3CC)cc1,inactive: -25.4%
9,Cc1cccc(-n2ccnc2SCC(=O)Nc2cccc3ccccc23)c1,inactive: 9.24%
10,CCc1ccc2[nH]cc(S(=O)(=O)c3ccc(C(C)C)cc3)c(=O)c2c1,active: 65.4%
11,Cc1cc(C)cc(OCCSc2nc3ccc(NC(=O)c4ccc5c(c4)OCO5)cc3s2)c1,inactive: -6.72%
12,O=C(COc1ccccc1Cl)Nc1ccc(OCc2cc(=O)n3ccsc3n2)cc1,inactive: -5.42%
13,Oc1ccccc1-c1nc(-c2cccs2)c(-c2cccs2)[nH]1,inactive: -19.5%
14,COc1ccc(NC(=O)C2CCC(CNS(=O)(=O)c3cccc4nsnc34)CC2)cc1OC (centres undefined),inactive: -4.32%
15,CCCOC(=O)c1cccc(Nc2nc(CCC)cc(=O)[nH]2)c1,active: 86.9%
16,Cc1ccc(CN2C(=O)C(O)(c3c(C)[nH]c4ccccc34)c3ccccc32)cc1 (centres undefined),active: 70%
17,COC(=O)c1cc2oc(C)cc2n1Cc1ccccc1Cl,inactive: -31.7%
18,CCOC(=O)Cn1c(=N)n(Cc2ccc(C(C)(C)C)cc2)c2ccccc21,inactive: 34%
19,COc1ccc(C(=O)n2nc(N)c3cc4ccc(C)cc4nc32)cc1OC,inactive: 0.377%
20,COCCNC(=O)CCCn1c(SCC(=O)Nc2ccc(F)cc2)nc2c(sc3ccccc32)c1=O,inactive: -5.16%
21,CC1CCN(C(=O)c2c(NC(=O)c3ccccc3Cl)sc3c2CCC(C(C)(C)C)C3)CC1 (centres undefined),inactive: -11%
22,COc1ccccc1C1NC(=O)c2n[nH]c(-c3cccs3)c21 (centres undefined),active: 104%
23,Cc1cc(C)cc(-n2ccnc2SCC(=O)Nc2cccc3ccccc23)c1,inactive: -19.7%
24,Cc1cc2nc(-c3ccc(OCc4ccccc4C)cc3)cc(C(F)(F)F)n2n1,inactive: 2.12%
25,Cc1ccccc1-c1nc(CN2CCCC(C(=O)NCc3ccc(Cl)cc3)C2)c(C)o1 (centres undefined),inactive: 23.3%
26,COc1ccc(N2C(=O)NC(NS(=O)(=O)c3ccc(Cl)cc3)(C(F)(F)F)C2=O)cc1 (centres undefined),inactive: -2.22%
27,CNC(=O)C1CCC(Cn2c(=O)c3sccc3n(Cc3cc(C)ccc3C)c2=O)CC1 (centres undefined),inactive: 0.452%
